# Hit rate of the full screen: of about 310,000 compounds, about 14,000 (4.5%) showed an effect of 50% or more. Effects have a minus sign here. Some of the results follow.
# Molecular target: human ether-à-go-go-related gene (hERG) potassium channel (human, UniProt Q12809)
# Test: primary screen, population patch clamp on CHO cells stably expressing hERG
# 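Note: peak tail current of the secondary pulse compared with the same well before compound.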
# Chain of human ether-à-go-go-related gene (hERG) potassium channel (Q12809 whole entry, looked up): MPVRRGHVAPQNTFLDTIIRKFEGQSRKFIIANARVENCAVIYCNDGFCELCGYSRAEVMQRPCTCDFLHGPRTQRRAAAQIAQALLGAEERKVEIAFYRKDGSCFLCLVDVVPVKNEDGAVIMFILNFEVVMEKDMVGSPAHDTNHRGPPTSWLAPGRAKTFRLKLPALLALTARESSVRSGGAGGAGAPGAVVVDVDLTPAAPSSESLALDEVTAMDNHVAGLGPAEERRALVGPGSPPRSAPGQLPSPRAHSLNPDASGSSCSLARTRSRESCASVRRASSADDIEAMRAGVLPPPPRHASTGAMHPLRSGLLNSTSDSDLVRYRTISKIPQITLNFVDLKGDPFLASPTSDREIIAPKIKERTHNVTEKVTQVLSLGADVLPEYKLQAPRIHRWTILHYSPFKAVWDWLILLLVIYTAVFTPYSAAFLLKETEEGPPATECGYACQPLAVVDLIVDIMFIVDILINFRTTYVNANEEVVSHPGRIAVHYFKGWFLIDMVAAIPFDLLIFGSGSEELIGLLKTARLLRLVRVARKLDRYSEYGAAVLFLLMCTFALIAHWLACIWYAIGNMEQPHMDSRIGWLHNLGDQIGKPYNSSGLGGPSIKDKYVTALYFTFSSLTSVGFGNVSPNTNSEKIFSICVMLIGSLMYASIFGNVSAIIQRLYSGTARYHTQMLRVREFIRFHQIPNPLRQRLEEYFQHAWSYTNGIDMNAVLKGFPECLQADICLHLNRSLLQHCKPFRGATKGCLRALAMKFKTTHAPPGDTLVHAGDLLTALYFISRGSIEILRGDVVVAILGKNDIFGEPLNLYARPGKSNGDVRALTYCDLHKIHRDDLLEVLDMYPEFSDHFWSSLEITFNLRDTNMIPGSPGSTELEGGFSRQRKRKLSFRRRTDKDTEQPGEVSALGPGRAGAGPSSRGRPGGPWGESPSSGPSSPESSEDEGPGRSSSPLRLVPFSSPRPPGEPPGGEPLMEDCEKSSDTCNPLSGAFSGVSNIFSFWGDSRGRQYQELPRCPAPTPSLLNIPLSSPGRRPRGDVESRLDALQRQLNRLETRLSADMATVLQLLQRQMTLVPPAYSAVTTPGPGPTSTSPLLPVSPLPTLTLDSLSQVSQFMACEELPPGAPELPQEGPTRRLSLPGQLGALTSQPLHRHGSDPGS
row,Compound,"hERG current change (%, negative = inhibition) at 10uM [%]"
1,Cc1ccc(-c2n[nH]c(=O)c3ccccc23)cc1S(N)(=O)=O,2.43
2,CC(OC(=O)C1CCN(S(=O)(=O)c2ccc(Cl)cc2)CC1)C(=O)N1CCc2ccccc21 (stereo not drawn),-16.4
3,CCOc1ccc(S(=O)(=O)NCCC(=O)NCCOc2ccccc2OC)cc1,-5.42
4,O=c1oc2c(-c3ccc([N+](=O)[O-])cc3)cc(O)cc2s1,11.3
5,CC(Sc1nnnn1-c1ccc(O)cc1)C(=O)NNC(=O)c1ccc(F)cc1 (stereo not drawn),3.52
6,CC(C)c1nnc(NC(=O)c2ccc3ccccc3c2)s1,2.94
7,Cc1ccc(C(=O)Nc2ccc(F)cc2)cc1NC1=NC2CS(=O)(=O)CC2S1 (stereo not drawn),13.5
8,COn1c(-c2ccccc2)c(C=O)c2ccccc21,-2.59
9,Nc1ccc(S(=O)(=O)NC2=NCCCCC2)cc1N,3.36
10,C(=N\n1cnnc1)/c1cccc(Oc2ccccc2)c1,1.09
11,CCNC(=O)/C(C#N)=C/c1c(N2CCN(c3ccccc3)CC2)nc2ccccn2c1=O,-66.3
12,Cc1cc(F)ccc1NC(=O)c1cc(S(=O)(=O)N2CCOCC2)cn1C,-27.9
13,COCC(=O)N1CCC(Oc2ccc(C(=O)NCc3cc(C)n(C)n3)cc2)CC1,3.38
14,COc1ccc(N2CCN(CC(=O)NC(C)c3ccccc3)CC2)cc1 (stereo not drawn),20.6
15,O=C(O)C1CCCCN1C(=O)c1cc2c(s1)CCCCC2 (stereo not drawn),-6.95
16,COc1ccc(C(=O)NN=C2CCCC2)cc1,-7.28
17,O=C(COC(=O)c1ccccc1Cl)NCCC1=CCCCC1,8.14
18,CN1CCN(C(=O)C2CC(c3c(F)cccc3Cl)=NO2)CC1 (stereo not drawn),-1.24
19,Cc1cc(C)c(C)c(OCCNCc2ccccc2)c1.O=C(O)C(=O)O,-5.47
20,CC(=O)N1CCC2(CC1)C(C#N)=C(N)OC1=C2C(=O)CC(C)(C)C1,8.09
21,COc1ccc(-c2noc(-c3ccccc3-c3ccccc3)n2)cc1,-9.86
22,COc1ccc(C(=O)Nc2nnc(C(F)(F)F)s2)cc1,68.7

row,Compound,"hERG current change (%, negative = inhibition) at 10uM [%]"
1,Cn1c(=O)c2c(nc(CN3CCN(Cc4ccccc4)CC3)n2Cc2ccc(Cl)cc2)n(C)c1=O,-68
2,Cc1occc1C(=O)Nc1ccc2ccccc2c1,-1.51
3,COc1ccc(N2CCN(C(c3ccc4ncccc4c3)c3nnnn3C(C)C)CC2)cc1 (stereo not drawn),-51.7
4,Cc1onc(-c2ccccc2)c1C(=O)c1c[nH]c(C(=O)NCCCN2CCOCC2)c1,2.7
5,Nc1nc(SCC(=O)Nc2ccc(F)cc2)[nH]c(=O)c1NC(=O)c1ccc(F)c(F)c1,18.3
6,O=C(OCc1cccs1)c1ccccc1NS(=O)(=O)c1ccc2c(c1)OCCO2,13.6
7,O=c1cc(-c2cccc(Br)c2)nc(-c2ccccc2F)o1,9.64
8,COc1ccc(-n2cnc3scc(-c4ccc(OC)c(OC)c4)c3c2=O)cc1,6.63
9,O=C(NCc1n[nH]c(=S)n1-c1ccc(F)cc1)c1ccco1,5.03
10,COc1ccccc1OCC(=O)Nc1ccccc1C(=O)N1CCCC1,3.22
11,CNC(=O)CSc1nnc(-c2cnccn2)n1C,30.6
12,O=C(Cn1c(COc2ccccc2)nc2ccccc21)Nc1cccc(Cl)c1,15.6
13,Cc1ccc(-c2c(CC(=O)O)c(C)nc3sc4c(c23)CCCC4)cc1.Cl,11.4
14,CCOC(=O)CNC(=O)N1CCCC(C(=O)c2cc(C)c(OC)c(C)c2)C1 (stereo not drawn),9.16
15,Cc1ccc(Oc2ccc(NC(=O)CCC(=O)OCC(=O)c3cccs3)cc2)cc1C,5.02
16,O=S(=O)(c1ccc(Cl)cc1)N1CCC(O)(c2cccnc2)CC1,-17.9
17,CC(C)C(OC(=O)CN1C(=O)c2ccccc2C1=O)C(=O)NC1CCCC1 (stereo not drawn),18.7
18,COc1ccccc1OCc1ccc(C(=O)NCc2cccnc2)o1,-1.34
19,O=C(CC1CC2CCC1C2)OCC(=O)c1c[nH]c2ccccc12 (stereo not drawn),-1.4
20,O=C(NCC(c1cccs1)N1CCc2ccccc21)c1ccccc1 (stereo not drawn),15.3
21,Cc1csc2ncc(C(=O)NCc3ccccc3Cl)c(=O)n12,-25.4
22,CC(Sc1nnc(COc2ccc([N+](=O)[O-])cc2)n1-c1ccccc1)C(=O)O (stereo not drawn),-3.35

row,Compound,"hERG current change (%, negative = inhibition) at 10uM [%]"
1,COc1c(C)cc(C(=O)C2CCCN(C(=O)c3ccc4cc[nH]c4c3)C2)cc1C (stereo not drawn),-5.66
2,COc1ccc(-n2c(=S)[nH]c3cc(C(=O)NCCCN4CCCC4=O)ccc3c2=O)cc1OC,21.1
3,CN(C)/C=C(\C#N)C(=O)N/N=C/c1ccccc1,-0.643
4,Cc1oc(-c2ccccc2Cl)nc1CN1CCCCC1c1cccnc1 (stereo not drawn),-9.92
5,COc1ccc(OC)c(NC(=O)Cn2cc(C#N)c3ccccc32)c1,0.565
6,CCOC(=O)c1c(N)sc(C(=O)Nc2ccccc2F)c1C,19.5
7,COc1ccc(N(CC(O)Cn2c(C)nc3ccccc32)S(=O)(=O)c2ccccc2)cc1 (stereo not drawn),4.8
8,Cc1ccc(/C=C/c2nc3ccccc3[nH]2)o1,14.5
9,COc1cc(OC)c(C2=NOC(C(=O)Nc3c(C)nn(CC(=O)N4CCCC4)c3C)C2)cc1Cl (stereo not drawn),-16.3
10,CCCc1cc(=O)[nH]c(SCC(=O)Nc2sc3c(c2C#N)CCCC3)n1,-25.7
11,CCC1CCCCN1C(=O)COC(=O)c1n[nH]c2ccccc12 (stereo not drawn),-14.1
12,Cc1ccc(NC(=O)c2sc3nc(C)cc(C)c3c2N)cc1,5.38
13,O=C(Nc1ccc(Br)cn1)c1cccc2c1-c1ccccc1C2=O,21.6
14,Cc1ccc(-n2ncc3c(N4CCN(c5ccc(F)cc5)CC4)ncnc32)c(C)c1,0.188
15,O=C(NCCCN1CCCC1=O)Nc1ccc(Cl)cc1,2.13
16,OC1CCN(c2cc(-c3ccccc3)nc3cc(-c4ccc(F)cc4)nn23)CC1,4.64
17,COc1ccc(NC(=O)CSCC(=O)NCc2cccc(C(F)(F)F)c2)cc1,3.42
18,Cc1ccc(-n2c(C)cc(C=C3C(=O)CC(C)(C)CC3=O)c2C)cc1,0.298
19,CCOC(=O)c1ccc(NC(=O)CN2C(=O)CCC2=O)cc1,8.48
20,Cc1cc(NC(=O)c2ccc(F)cc2)n(C)n1,17.3
21,O=C(Nc1ccccc1)c1ccccc1OCc1ccc(F)cc1,10.1
22,Cc1sc2nc(SCC(=O)N(C)Cc3ccccc3)n(-c3ccccc3)c(=O)c2c1C,7.29

row,Compound,"hERG current change (%, negative = inhibition) at 10uM [%]"
1,COc1ccc(Cl)cc1NC(=O)CCn1c(=O)oc2ccccc21,5.39
2,Cc1ccc(NC(=S)NNC(=S)NCc2ccccc2)cc1,15.4
3,CCN1C(=O)[C@H]2[C@@H](c3ccc(-c4cc(C(C)=O)cs4)cc3)N3CCC[C@@]3(C(=O)OC)[C@H]2C1=O.O=C(O)C(F)(F)F,8.98
4,Cc1cccc(-n2c(O)c(/C=N/NC(=O)c3ccccc3Cl)c3ccccc3c2=O)n1,3.15
5,CCOc1cc(N2CCOCC2)c(OCC)cc1NC(=O)COC(=O)c1cc2ccccc2cc1O,-11.7
6,CC1(C)O[C@@H]2[C@H](O1)[C@@H](CO)O[C@H]2n1c(N2CCCCC2)nc2c(N)ncnc21,-2.99
7,CCOC(=O)c1c(NC(=O)COC(=O)Cc2n[nH]c(=O)c3ccccc23)sc(C(=O)N(C)C)c1C,-2.24
8,Cc1cc(=O)oc2cc(NC(=O)CC3(CC(=O)O)CCCC3)ccc12,14.7
9,COC(=O)c1ccc(NC(=O)C[n+]2ccccc2)cc1.[Cl-],11.9
10,Cl.Nc1nonc1C(=O)NCCNCc1cc(Br)ccc1OCc1ccc(F)cc1,-38.2
11,O=C(CN1C(=O)C2C3CC(C(Br)C3Br)C2C1=O)N1CCOCC1 (stereo not drawn),6.54
12,CCOC(=O)C(=O)N/N=C/c1ccc(F)cc1,0.391
13,Cc1cc(=O)oc2cc(OCC(=O)OCC(=O)Nc3ccccc3F)ccc12,8.41
14,CCC1CCCCN1CCCNC(=O)CSc1nc2nc(C)c(Cc3ccc(C)cc3)c(C)n2n1 (stereo not drawn),-47.8
15,CCCCCCCCC[n+]1cccc2c3ccccc3ccc21.[Br-],-84.8
16,O=C1CSC(=NC2CCCCC2)N1,14.1
17,O=C(O)CC(CC(=O)Nc1ccccc1C(=O)O)c1ccccc1 (stereo not drawn),3.3
18,CSCC[C@H](NC(=O)OC(C)(C)C)C(=O)N1CCC(C(=O)N[C@H](C(=O)O)C(C)C)CC1,-3.7
19,Cc1ccc(CNC(=O)C2CC(c3ccc(C(F)(F)F)cc3)=NO2)o1 (stereo not drawn),3.13
20,CCN(CC(=O)Nc1cc(Cl)ccc1C)C(=O)CCOc1ccccc1C,18.4
21,O=C(CSCc1ccccc1)N1CCN(C(=O)c2ccco2)CC1,-14.3

# Source: paper PMC4336329 (PLoS ONE, 2015)
